Assay results reported in the supplement of paper PMC4604168 (melanoma cell lines).
The other results are listed elsewhere or left out. Single values are uncertain, as repeats are few or missing.

Columns and labels:
Assay in all cases: cell count relative to DMSO control; melanoma cells; higher = more viable cells
Settings in all cases: library dose: low library concentration; 72 h
MZ2-MEL = system: MZ2-MEL
MeWo = system: MeWo
RPMI7951 = system: RPMI7951
RVH-421 = system: RVH-421
SkMel28 = system: SkMel28
SkMel2 = system: SkMel2
SkMel30 = system: SkMel30
SkMel5 = system: SkMel5
UACC257 = system: UACC257
UACC62 = system: UACC62
WM115 = system: WM115
WM1716 = system: WM1716
WM1745 = system: WM1745
WM3526 = system: WM3526
WM3619 = system: WM3619
WM451Lu = system: WM451Lu
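Note: cell number obtained by counting DAPI-stained nuclei in high-throughput microscope images with image analysis software, screen run in 1,536-well plates.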

Structure (SMILES)	cell count (MZ2-MEL)	cell count (MeWo)	cell count (RPMI7951)	cell count (RVH-421)	cell count (SkMel28)	cell count (SkMel2)	cell count (SkMel30)	cell count (SkMel5)	cell count (UACC257)	cell count (UACC62)	cell count (WM115)	cell count (WM1716)	cell count (WM1745)	cell count (WM3526)	cell count (WM3619)	cell count (WM451Lu)
CC(C)(C)c1cnc(CSc2cnc(NC(=O)C3CCNCC3)s2)o1 + NC(=O)Nc1cc(-c2cccc(F)c2)sc1C(=O)N[C@H]1CCCNC1 [AZD7762] (first compound 0.01 µM, partner dose 0.02 µM)	104%	97.8%	105%	119%	104%	108%	111%	111%	131%	79.1%	87.3%	87.4%	86.9%	90%	61.1%	91.3%
NC(=O)c1ccc(N(C(N)=O)c2c(F)cccc2F)nc1-c1ccc(F)cc1F + CCN(CC)CCNC(=O)c1c(C)[nH]c(/C=C2\C(=O)Nc3ccc(F)cc32)c1C [sunitinib] (first compound 0.4 µM, partner dose 0.4 µM)	105%	84.2%	122%	95%	99.6%	123%	104%	–	–	103%	108%	120%	80%	94.8%	97%	113%
NC(=O)c1ccc(N(C(N)=O)c2c(F)cccc2F)nc1-c1ccc(F)cc1F + O=C(Nc1cccc(Cl)c1)Nc1ncc(CCNc2ncnc3ccsc23)s1 [SNS314] (first compound 0.4 µM, partner dose 0.0008 µM)	103%	91.7%	96.5%	110%	86%	105%	119%	112%	81.2%	90.4%	91.1%	113%	90.5%	72%	106%	104%
CC(C)(C)c1cnc(CSc2cnc(NC(=O)C3CCNCC3)s2)o1 + OCCn1cc(-c2cnc3nnn(Cc4ccc5ncccc5c4)c3n2)cn1 [PF04217903] (first compound 0.01 µM, partner dose 1 µM)	109%	110%	109%	92.7%	107%	102%	105%	101%	115%	114%	105%	98.3%	94.2%	96.5%	101%	103%
CC(C)(C)c1cnc(CSc2cnc(NC(=O)C3CCNCC3)s2)o1 + CN(NC(=O)CC(=O)NN(C)C(=S)c1ccccc1)C(=S)c1ccccc1 [STA4783] (first compound 0.01 µM, partner dose 0.006 µM)	108%	90.8%	102%	96.4%	93.7%	81.4%	85.3%	113%	77.5%	76.2%	77.3%	69.5%	48.5%	109%	44.7%	98.8%
CCCCCCCCc1ccc(CCC(N)(CO)CO)cc1 [fingolimod] + NC(=O)Nc1cc(-c2cccc(F)c2)sc1C(=O)N[C@H]1CCCNC1 [AZD7762] (first compound 2 µM, partner dose 0.02 µM)	106%	112%	78.4%	82.9%	82.6%	99.7%	79.9%	99.4%	103%	95.8%	74.1%	70.9%	65.6%	72.9%	38.4%	133%
CCCCCCCCc1ccc(CCC(N)(CO)CO)cc1 [fingolimod] + Nc1nc(F)nc2c1ncn2[C@@H]1O[C@H](CO)[C@@H](O)[C@@H]1O [fludarabine] (first compound 2 µM, partner dose 0.2 µM)	99.1%	36.9%	61.5%	96.1%	73.3%	4.25%	14.8%	–	–	79.5%	89.1%	74.8%	71.4%	28.8%	94.4%	56.6%
CCCCCCCCc1ccc(CCC(N)(CO)CO)cc1 [fingolimod] + Cc1cc(Nc2cc(N3CCN(C)CC3)nc(/C=C/c3ccccc3)n2)n[nH]1 [ENMD2076] (first compound 2 µM, partner dose 0.04 µM)	89.6%	84.3%	95.3%	93.6%	97.3%	110%	113%	–	–	92.1%	92.1%	100%	73.8%	111%	83.2%	104%
NC(=O)c1ccc(N(C(N)=O)c2c(F)cccc2F)nc1-c1ccc(F)cc1F + Nc1ncn([C@H]2C[C@H](O)[C@@H](CO)O2)c(=O)n1 [decitabine] (first compound 0.4 µM, partner dose 0.1 µM)	102%	87%	100%	88.2%	86%	104%	119%	–	–	89.4%	91.6%	89.5%	84.6%	99.9%	77.8%	103%
NC(=O)c1ccc(N(C(N)=O)c2c(F)cccc2F)nc1-c1ccc(F)cc1F + CS(=O)(=O)CCNCc1ccc(-c2ccc3ncnc(Nc4ccc(OCc5cccc(F)c5)c(Cl)c4)c3c2)o1 [lapatinib] (first compound 0.4 µM, partner dose 0.8 µM)	100%	93.7%	94.5%	85.1%	83.7%	98.1%	104%	–	–	115%	88.6%	101%	93.6%	100%	120%	89%
NC(=O)c1ccc(N(C(N)=O)c2c(F)cccc2F)nc1-c1ccc(F)cc1F + C=C(c1ccc(C(=O)O)cc1)c1cc2c(cc1C)C(C)(C)CCC2(C)C [Bexarotene] (first compound 0.4 µM, partner dose 2 µM)	95.5%	88.9%	86.4%	92.1%	70.2%	88.7%	92.6%	–	–	95%	94%	98.7%	94.6%	81.2%	84.7%	90%
NC(=O)c1ccc(N(C(N)=O)c2c(F)cccc2F)nc1-c1ccc(F)cc1F + COc1cc2c(Oc3ccc4[nH]c(C)cc4c3F)ncnc2cc1OCCCN1CCCC1 [cediranib] (first compound 0.4 µM, partner dose 0.4 µM)	103%	101%	96.2%	106%	111%	113%	87.3%	105%	90.8%	91.3%	108%	109%	81.5%	92.2%	98.3%	106%
CCCCCCCCc1ccc(CCC(N)(CO)CO)cc1 [fingolimod] + CCCCCCCCCCCC1=C(O)C(=O)C=C(O)C1=O [Embelin] (first compound 2 µM, partner dose 1.2 µM)	96.5%	98.3%	85.4%	115%	76.4%	93.5%	94.2%	90.7%	76%	96.2%	85.7%	92.1%	80.4%	82.1%	89.7%	109%
NC(=O)c1ccc(N(C(N)=O)c2c(F)cccc2F)nc1-c1ccc(F)cc1F + Nc1cccc2c1CN(C1CCC(=O)NC1=O)C2=O [lenalidomide] (first compound 0.4 µM, partner dose 1 µM)	96.2%	105%	91.1%	83%	86.4%	87.4%	111%	–	–	93.6%	107%	93.9%	90.1%	97.1%	113%	108%
CCCCCCCCc1ccc(CCC(N)(CO)CO)cc1 [fingolimod] + O=C(O)C(=O)Nc1sc2c(c1C(=O)O)CCNC2 [TCS401] (first compound 2 µM, partner dose 1.66667 µM)	103%	99.3%	93%	99.2%	95.5%	100%	88.3%	79.9%	75.7%	73.5%	90.6%	72.9%	81.1%	79%	89.5%	104%
NC(=O)c1ccc(N(C(N)=O)c2c(F)cccc2F)nc1-c1ccc(F)cc1F + COc1ccc(Cl)c(Nc2nc3ccccc3nc2NS(=O)(=O)c2cccc(NC(=O)C(C)(C)N)c2)c1 [XL147] (first compound 0.4 µM, partner dose 0.8 µM)	94.5%	98.3%	92.5%	94.8%	93.8%	94.7%	120%	–	–	102%	100%	111%	96.5%	107%	95.2%	89.9%
NC(=O)c1ccc(N(C(N)=O)c2c(F)cccc2F)nc1-c1ccc(F)cc1F + C[C@]1(c2nc3c(C(N)=O)cccc3[nH]2)CCCN1 [Veliparib] (first compound 0.4 µM, partner dose 1.4 µM)	96.3%	81.5%	71.7%	94.6%	72.9%	87.3%	96.2%	–	–	76.9%	80.7%	95.5%	90.7%	88.1%	97.4%	110%
NC(=O)c1ccc(N(C(N)=O)c2c(F)cccc2F)nc1-c1ccc(F)cc1F + CC(C)C[C@H](NC(=O)[C@H](Cc1ccccc1)NC(=O)c1cnccn1)B(O)O [Bortezomib] (first compound 0.4 µM, partner dose 0.001 µM)	91.5%	103%	111%	85.1%	102%	101%	114%	–	–	94.5%	96.4%	54.6%	96.3%	104%	36.1%	99.4%
NC(=O)c1ccc(N(C(N)=O)c2c(F)cccc2F)nc1-c1ccc(F)cc1F + C=CCNC1=C2C[C@@H](C)C[C@H](OC)[C@H](O)[C@@H](C)/C=C(\C)[C@H](OC(N)=O)[C@@H](OC)/C=C\C=C(/C)C(=O)NC(=CC1=O)C2=O [Tanespimycin] (first compound 0.4 µM, partner dose 0.002 µM)	106%	95.6%	92.8%	85.3%	84.8%	92.5%	85.1%	–	–	92.3%	90.5%	88.3%	87.2%	94.3%	117%	93.8%
NC(=O)c1ccc(N(C(N)=O)c2c(F)cccc2F)nc1-c1ccc(F)cc1F + Nc1nc(F)nc2c1ncn2[C@@H]1O[C@H](CO)[C@@H](O)[C@@H]1O [fludarabine] (first compound 0.4 µM, partner dose 0.2 µM)	115%	35.2%	79.1%	116%	75.6%	10.6%	16.6%	–	–	81.6%	94%	109%	90.6%	28.9%	116%	51.6%
NC(=O)c1ccc(N(C(N)=O)c2c(F)cccc2F)nc1-c1ccc(F)cc1F + C[C@@H](Oc1cc(-c2cnn(C3CCNCC3)c2)cnc1N)c1c(Cl)ccc(F)c1Cl [Crizotinib] (first compound 0.4 µM, partner dose 0.2 µM)	97.6%	91%	100%	73.7%	80.8%	92.1%	109%	–	–	90.4%	81.4%	106%	106%	87.9%	92%	97.8%
CCCCCCCCc1ccc(CCC(N)(CO)CO)cc1 [fingolimod] + COc1ccc(Cl)c(Nc2nc3ccccc3nc2NS(=O)(=O)c2cccc(NC(=O)C(C)(C)N)c2)c1 [XL147] (first compound 2 µM, partner dose 0.8 µM)	101%	92.7%	81.1%	82.3%	92.9%	86.2%	97.2%	–	–	60.3%	99.4%	71.9%	78.4%	87.4%	118%	102%
CCCCCCCCc1ccc(CCC(N)(CO)CO)cc1 [fingolimod] + Cn1c(=O)n(-c2ccc(C(C)(C)C#N)cc2)c2c3cc(-c4cnc5ccccc5c4)ccc3ncc21 [NVP-BEZ235] (first compound 2 µM, partner dose 0.004 µM)	107%	81.9%	69.2%	66.4%	79.2%	83.6%	76.9%	–	–	75.7%	84%	72.2%	76.8%	85.9%	77.3%	96.9%
